T1: UNK ZnF1-3 (human, UniProt Q9C0B0 31-174)
T1 sequence: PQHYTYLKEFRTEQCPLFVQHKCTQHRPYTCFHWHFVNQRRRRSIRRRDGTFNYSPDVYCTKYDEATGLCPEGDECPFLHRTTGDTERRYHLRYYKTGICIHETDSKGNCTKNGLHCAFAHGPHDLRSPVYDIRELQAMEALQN

B1: chr4:110743517:110743518:+_ENSG00000109534_ENST00000226796|hu_hu|motif|central (ssRNA)
RNA: GGGAGUUCUACAGUCCGACGAUCUUUCUCACCUGGAGGUCGAGGUAAAAACCUCUGCAGUGGCAGCAGCUUAUAUGGGUCGGUAUAAAACUUCUGUAGUUUUUUAAAGGAUGAAGCCUUCAUGUUUUCUGACAACUUAACUGACAACAGAGGAUUGAGCAUCA
B2: chr15:65869917:65869918:+_ENSG00000074696_ENST00000261875|hu_hu|FALSE|FALSE (ssRNA)
RNA: GGGAGUUCUACAGUCCGACGAUCGCCAUUUUUUAUGUUUGUGCACAGCCUUACAGUUUGGAGGUGUGUUUGGCCUACUCUAAUAUUUCUAGUUUGUCAAAGGCUGUACACUGUUACUGCCAGUUUGACCUACAUACUGUGUUCCAACAGAGGAUUGAGCAUCA
B3: chr7:56126341:56126342:+_ENSG00000146731_ENST00000540286|hu_mus|hu_hu_hu_mus_True|8_18 (ssRNA)
RNA: GGGAGUUCUACAGUCCGACGAUCCAUGUUUCUCCUCUUGGCUCUGCGCAGAGCUACGAUCCCUUCUUUCGCAAGGGCAUCUAAGGAAAAGGGGUCAAUCCCCUUUUGAUUAAUAACAACAAAUCCUUUAUCUGAAUCACCACACAACAGAGGAUUGAGCAUCA
B4: 106644022_106644142_2584_ncRNA_ENSMUSG00000020719_ENSMUST00000133426|mouse|control|control (ssRNA)
RNA: GGGAGUUCUACAGUCCGACGAUCGUGUGGCAAAAUAGCAAUGUACGGAGUUUUGCACACCACAACAGCCAGACCAAAAAUAAAAAGUUAGACAAUUGUAUUCCCAAGAAGGUACGGGCUGAAAAAAAUACAGUUAAAAUGGUUCAACAGAGGAUUGAGCAUCA
B5: chr2:42509997:42509998:+_ENSG00000143924_ENST00000318522|hu_mus|hu_hu_hu_mus_True|38_78 (ssRNA)
RNA: GGGAGUUCUACAGUCCGACGAUCUCGCUGAGUCCUCUCCUCAUAAUUAAACAGGACUACUACUGAUGCGAUAAAAUAAACUAUCUCCCCUGUGGGAAGAAGGUAAACAUUCGCUCUACAGUCCUUUCCUCGAUAACCGUAUACCAACAGAGGAUUGAGCAUCA
B6: chr12:42180722:42180723:-_ENSMUSG00000036295_ENSMUST00000043884|mus_hu|mus_mus_mus_hu_True|18_38 (ssRNA)
RNA: GGGAGUUCUACAGUCCGACGAUCCUGUAGGAGAAGAAUCUGUGUGUUAGCUGGCAAUCUGGCUGGGAAAGUUAAAAGACCUAAAUCAUUACAAUCCACUGUCGAUGCUUCCAUAUAGAUGGAUCUCGGUGUAAACCAAGGCCUCAACAGAGGAUUGAGCAUCA
B7: chr18:67943652:67943653:+_ENSMUSG00000079614_ENSMUST00000025421|mus_hu|FALSE|FALSE (ssRNA)
RNA: GGGAGUUCUACAGUCCGACGAUCAGUUGUCCUUUUAACCCAGUGGCUCUGUCCUCGCAGUUUAUCAUUUGAUUCUCCUACUAUUUCUUCCCAUACAGCAGCUGUUCGGUCAAAAGAACAGGAAGCCAAAACCUGCCCAAAUUCCAACAGAGGAUUGAGCAUCA
B8: chr17:46973061:46973062:+_ENSG00000159199_ENST00000355938|hu_hu|FALSE|FALSE (ssRNA)
RNA: GGGAGUUCUACAGUCCGACGAUCGAGGAUGAGGAAGGCGACCAUCAAACAGAAAAGCCCCAUGGCCUCAGACAGGGCAAAGCCAAGAAUGGCAUAGGAGAAGAGCUGCUGCUUGAGAGACGGGUUCCUGGCAUAGCCAAUGAUCAACAGAGGAUUGAGCAUCA
B9: chr14:89338683:89338684:+_ENSG00000165533_ENST00000346301|hu_hu|hu_hu_hu_mus_False|58_98 (ssRNA)
RNA: GGGAGUUCUACAGUCCGACGAUCGUGGUUGUUGUGGACCAGAGCCAGCCUGAAGCAUUGGUGGGCCAAGUUUGUAUCUCCUAUUCCCACAGCUAUGUGCCCCAGGUUGUACCAGACAUCAGCUGCCUCUUCUUCAUUUUCAGCCAACAGAGGAUUGAGCAUCA
B10: chr6:113465898:113465899:-_ENSMUSG00000030286_ENSMUST00000032425|mus_hu|FALSE|FALSE (ssRNA)
RNA: GGGAGUUCUACAGUCCGACGAUCAUCCUCCUUUUUAUUUCAAGAGGUGCCAGCUCCAAACAAAGUUACAAGGUUAAGUGCAACUCCAAGUUCCUGACACAGCUAAUCCCUGCUCGGUCUUCAAAAAAUAGAGGUCUGUAAUUCCAACAGAGGAUUGAGCAUCA
B11: chr7:44244176:44244177:+_ENSG00000106636_ENST00000223369|hu_mus|hu_hu_hu_mus_False|78_78 (ssRNA)
RNA: GGGAGUUCUACAGUCCGACGAUCACUGUCGCUCCGGACGUAGACAUGGCAAAGAUAGUCUUGUUCUUUGACAGAAGCUCUGCUGCCUUUCCCCGAGCGUUCCACAAUCAGUUGACUUGUAAAGGUCAUGAAUUCCUGCACACUCAACAGAGGAUUGAGCAUCA
B12: chr1:226549179:226549180:-_ENSG00000143799_ENST00000366794|hu_hu|FALSE|FALSE (ssRNA)
RNA: GGGAGUUCUACAGUCCGACGAUCCAGAGCCACCGGGUGUGACUCGGCUACCUCUCCCAAUUACCACAGGGAGGUCUUAAAAUUGAAUUUCAGUUUCAGCAGAUACUUCAGAUUUACCUGAGCAAUAUCAUAGACAAUGUACUCCAACAGAGGAUUGAGCAUCA
B13: chr2:216983849:216983850:+_ENSG00000079246_ENST00000392132|hu_hu|motif|central (ssRNA)
RNA: GGGAGUUCUACAGUCCGACGAUCCUUGCCAAGUGAGAAAGGCAAGAAGAAUUGCAGGGAGAUGUCACAUUUCUUCAAGCGGUGAAUUAUAAUAUCCAGCUGACUUUUGCUGAAUCGGCUGCUGAGGUCAGUGAAUAUUUCAAUCAACAGAGGAUUGAGCAUCA
B14: chr2:153237265:153237266:-_ENSMUSG00000061411_ENSMUST00000109784|mus_mus|mus_mus_mus_hu_False|18_108 (ssRNA)
RNA: GGGAGUUCUACAGUCCGACGAUCAAAAAAAAGAAAAAAAAAGUGUCCUUGUGCCCAAAGUCUCAGGUGCUUGGAGUGUGGCUAGAAACAGCUCUUUUGGAUCCCACCUCUUUCAAAAAACAGUGUAACCAACUGGUGAGGCAGCAACAGAGGAUUGAGCAUCA

This is one part of the list.

In the assay the target is T1, UNK ZnF1-3. Put plainly: nsRBNS (natural sequence RNA bind-n-seq); RBNS binding buffer (assumed for nsRBNS): 25 mM Tris pH 7.5, 150 mM KCl, 3 mM MgCl2, 0.01% Triton X-100, 500 ug/ml BSA, 20 U/ml SUPERase-In, 4 C; UNK is unkempt and MSI1 is Musashi-1; names of the RNAs are library labels; protein concentration not given here; high values mean tight binding.
In turn, B1 returned a binding signal of 0.853 enrichment R. B2 had a binding signal of 0.413 enrichment R.

For B3, the binding signal was 1.06 enrichment R.

With B4, the binding signal was found to be 2.54 enrichment R. The same measure for B5: 0.616 enrichment R; for B6: 0.967 enrichment R; for B7: 1.28 enrichment R. The same measure for B8: 1.5 enrichment R; for B9: 0.682 enrichment R; for B10: 1.42 enrichment R. As for B11, the binding signal was 0.819 enrichment R.

For B12, the binding signal is 0.801 enrichment R. Take B13: the binding signal was found to be 0.627 enrichment R. The same measure for B14: 2.14 enrichment R.

The record behind these values is publication PMC12136788.
